Measured values as given in the supplement of paper PMC4604168 (melanoma cell lines).
The list shows a part of the results. Single values are uncertain, as repeats are few or missing.

What was measured:
Assay in all cases: cell count relative to DMSO control; melanoma cells; higher = more viable cells
Conditions in all cases: library dose: low library concentration; 72 h
MZ2-MEL = tested on: MZ2-MEL
MeWo = tested on: MeWo
RPMI7951 = tested on: RPMI7951
RVH-421 = tested on: RVH-421
SkMel28 = tested on: SkMel28
SkMel2 = tested on: SkMel2
SkMel30 = tested on: SkMel30
UACC62 = tested on: UACC62
SkMel5 = tested on: SkMel5
UACC257 = tested on: UACC257
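Further: cell number obtained by counting DAPI-stained nuclei in high-throughput microscope images with image analysis software, screen run in 1,536-well plates.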

| Compound | cell count (MZ2-MEL) [%] | cell count (MeWo) [%] | cell count (RPMI7951) [%] | cell count (RVH-421) [%] | cell count (SkMel28) [%] | cell count (SkMel2) [%] | cell count (SkMel30) [%] | cell count (UACC62) [%] | cell count (SkMel5) [%] | cell count (UACC257) [%] |
| --- | --- | --- | --- | --- | --- | --- | --- | --- | --- | --- |
| CN1CCN(c2ccc3nc(-c4c(N)c5c(F)cccc5[nH]c4=O)[nH]c3c2)CC1 [Dovitinib] + CC(=O)c1c(C)c2cnc(Nc3ccc(N4CCNCC4)cn3)nc2n(C2CCCC2)c1=O [palbociclib] (first compound 0.1 µM, partner dose 0.04 µM) | 71.2 | 74.6 | 74.7 | 91.1 | 66.6 | 91.9 | 51 | 83.5 |  |  |
| CN1CCN(c2ccc3nc(-c4c(N)c5c(F)cccc5[nH]c4=O)[nH]c3c2)CC1 [Dovitinib] + O=C(O)[C@@H]1[O][Sb](=[O])([O][Sb]2(=[O])[O][C@H]([C@H](O)CO)[C@H](O)[C@H](C(=O)O)[O]2)[O][C@H]([C@H](O)CO)[C@@H]1O [stibogluconate] (first compound 0.1 µM, partner dose 2 µM) | 103 | 97.7 | 86.7 | 152 | 90.1 | 103 | 96.2 | 80.2 |  |  |
| CS(=O)(=O)CCNCc1ccc(-c2ccc3ncnc(Nc4ccc(OCc5cccc(F)c5)c(Cl)c4)c3c2)o1 [lapatinib] + C=C(c1ccc(C(=O)O)cc1)c1cc2c(cc1C)C(C)(C)CCC2(C)C [Bexarotene] (first compound 0.8 µM, partner dose 2 µM) | 110 | 86.5 | 86.5 | 98.4 | 76.7 | 93.9 | 103 | 95.2 |  |  |
| C[C@@H](Oc1cc(-c2cnn(C3CCNCC3)c2)cnc1N)c1c(Cl)ccc(F)c1Cl [Crizotinib] + CC(=O)c1c(C)c2cnc(Nc3ccc(N4CCNCC4)cn3)nc2n(C2CCCC2)c1=O [palbociclib] (first compound 0.2 µM, partner dose 0.04 µM) | 91.8 | 72.7 | 80.3 | 99.3 | 76.6 | 79.9 | 76.7 | 74.1 |  |  |
| CS(=O)(=O)CCNCc1ccc(-c2ccc3ncnc(Nc4ccc(OCc5cccc(F)c5)c(Cl)c4)c3c2)o1 [lapatinib] + COc1cc(Nc2ncc(F)c(Nc3ccc4c(n3)NC(=O)C(C)(C)O4)n2)cc(OC)c1OC [Tamatinib] (first compound 0.8 µM, partner dose 0.4 µM) |  | 90.3 | 65.9 | 66.6 | 104 | 91.8 | 101 | 82.5 | 102 | 97.1 |
| CNC(=O)c1cc(Oc2ccc(NC(=O)Nc3ccc(Cl)c(C(F)(F)F)c3)cc2)ccn1 [sorafenib] + Clc1ccc(Nc2nnc(Cc3ccncc3)c3ccccc23)cc1 [vatalanib] (first compound 0.4 µM, partner dose 2 µM) | 94 | 77.4 | 93.7 | 88.5 | 90.1 | 92.9 | 108 | 90.9 |  |  |
| C[C@@H](Oc1cc(-c2cnn(C3CCNCC3)c2)cnc1N)c1c(Cl)ccc(F)c1Cl [Crizotinib] + COc1cc(Nc2ncc(F)c(Nc3ccc4c(n3)NC(=O)C(C)(C)O4)n2)cc(OC)c1OC [Tamatinib] (first compound 0.2 µM, partner dose 0.4 µM) |  | 80.3 | 91.4 | 100 | 74.7 |  | 87.8 | 67.4 | 84.1 | 64.1 |
| CNC(=O)c1cc(Oc2ccc(NC(=O)Nc3ccc(Cl)c(C(F)(F)F)c3)cc2)ccn1 [sorafenib] + Nc1ccn([C@@H]2O[C@H](CO)[C@@H](O)C2(F)F)c(=O)n1 [gemcitabine] (first compound 0.4 µM, partner dose 0.0004 µM) |  | 97.5 | 105 | 97.8 | 104 | 93.5 | 94 | 107 |  |  |
| CS(=O)(=O)CCNCc1ccc(-c2ccc3ncnc(Nc4ccc(OCc5cccc(F)c5)c(Cl)c4)c3c2)o1 [lapatinib] + COc1ccc(Cl)c(Nc2nc3ccccc3nc2NS(=O)(=O)c2cccc(NC(=O)C(C)(C)N)c2)c1 [XL147] (first compound 0.8 µM, partner dose 0.8 µM) | 85.4 | 103 | 86.5 | 87.9 | 98.3 | 95.2 | 76.5 | 89.5 |  |  |
| C[C@@H](Oc1cc(-c2cnn(C3CCNCC3)c2)cnc1N)c1c(Cl)ccc(F)c1Cl [Crizotinib] + O=C(Nc1cccc(Cl)c1)Nc1ncc(CCNc2ncnc3ccsc23)s1 [SNS314] (first compound 0.2 µM, partner dose 0.0008 µM) |  | 92.9 | 117 | 113 | 88.7 | 101 | 113 | 92.8 | 96.4 | 79.2 |
| CN1CCN(c2ccc3nc(-c4c(N)c5c(F)cccc5[nH]c4=O)[nH]c3c2)CC1 [Dovitinib] + Cc1nc(Nc2ncc(C(=O)Nc3c(C)cccc3Cl)s2)cc(N2CCN(CCO)CC2)n1 [dasatanib] (first compound 0.1 µM, partner dose 0.004 µM) | 73.6 | 80.8 | 72.8 | 97 | 69.7 | 111 | 56.4 | 90.2 |  |  |
| CNC(=O)c1cc(Oc2ccc(NC(=O)Nc3ccc(Cl)c(C(F)(F)F)c3)cc2)ccn1 [sorafenib] + CCCS(=O)(=O)Nc1ccc(F)c(C(=O)c2c[nH]c3ncc(Cl)cc23)c1F [PLX4720] (first compound 0.4 µM, partner dose 0.08 µM) | 96 | 90.7 | 85.9 | 108 | 67.3 | 90.4 | 114 | 69.4 |  |  |
| C=CCNC1=C2C[C@@H](C)C[C@H](OC)[C@H](O)[C@@H](C)/C=C(\C)[C@H](OC(N)=O)[C@@H](OC)/C=C\C=C(/C)C(=O)NC(=CC1=O)C2=O [Tanespimycin] + Cn1nnc2c(C(N)=O)ncn2c1=O [temozolomide] (first compound 0.002 µM, partner dose 2 µM) |  | 112 | 73.2 | 113 | 90.2 | 104 | 116 | 69.5 |  |  |
| C[C@@H](Oc1cc(-c2cnn(C3CCNCC3)c2)cnc1N)c1c(Cl)ccc(F)c1Cl [Crizotinib] + Nc1nc(F)nc2c1ncn2[C@@H]1O[C@H](CO)[C@@H](O)[C@@H]1O [fludarabine] (first compound 0.2 µM, partner dose 0.2 µM) |  | 34.8 | 109 | 93.4 | 82.5 | 9.58 | 19.6 | 79.6 |  |  |
| C=CCNC1=C2C[C@@H](C)C[C@H](OC)[C@H](O)[C@@H](C)/C=C(\C)[C@H](OC(N)=O)[C@@H](OC)/C=C\C=C(/C)C(=O)NC(=CC1=O)C2=O [Tanespimycin] + COc1ccc(Cl)c(Nc2nc3ccccc3nc2NS(=O)(=O)c2cccc(NC(=O)C(C)(C)N)c2)c1 [XL147] (first compound 0.002 µM, partner dose 0.8 µM) | 102 | 88.5 | 81.1 | 94 | 96.8 | 87.4 | 86.6 | 93.2 |  |  |
| CNC(=O)c1cc(Oc2ccc(NC(=O)Nc3ccc(Cl)c(C(F)(F)F)c3)cc2)ccn1 [sorafenib] + COCC[n+]1c2c(n(Cc3cnccn3)c1C)C(=O)c1ccccc1C2=O [YM155] (first compound 0.4 µM, partner dose 0.0004 µM) |  | 113 | 76.8 | 88.6 | 99.1 |  | 102 | 107 |  |  |
| CS(=O)(=O)CCNCc1ccc(-c2ccc3ncnc(Nc4ccc(OCc5cccc(F)c5)c(Cl)c4)c3c2)o1 [lapatinib] + Nc1cccc2c1CN(C1CCC(=O)NC1=O)C2=O [lenalidomide] (first compound 0.8 µM, partner dose 1 µM) |  | 99.6 | 89.8 | 94.9 | 93.7 | 97.1 | 87.2 | 106 |  |  |
| CN1CCN(c2ccc3nc(-c4c(N)c5c(F)cccc5[nH]c4=O)[nH]c3c2)CC1 [Dovitinib] + CCCS(=O)(=O)Nc1ccc(F)c(C(=O)c2c[nH]c3ncc(Cl)cc23)c1F [PLX4720] (first compound 0.1 µM, partner dose 0.08 µM) | 85.2 | 83.9 | 109 | 87.2 | 80.5 | 101 | 66 | 72.7 |  |  |
| CN1CCN(c2ccc3nc(-c4c(N)c5c(F)cccc5[nH]c4=O)[nH]c3c2)CC1 [Dovitinib] + CO[C@H]1C[C@@H]2CC[C@@H](C)[C@@](O)(O2)C(=O)C(=O)N2CCCC[C@H]2C(=O)O[C@H]([C@H](C)C[C@@H]2CC[C@@H](OCCO)[C@H](OC)C2)CC(=O)[C@H](C)/C=C(\C)[C@@H](O)[C@@H](OC)C(=O)[C@H](C)C[C@H](C)/C=C/C=C/C=C/1C [everolimus] (first compound 0.1 µM, partner dose 0.02 µM) | 67.6 | 57.4 | 85.2 | 74 | 40.4 |  | 37.3 | 52.9 |  |  |
| C[C@@H](Oc1cc(-c2cnn(C3CCNCC3)c2)cnc1N)c1c(Cl)ccc(F)c1Cl [Crizotinib] + COCC[n+]1c2c(n(Cc3cnccn3)c1C)C(=O)c1ccccc1C2=O [YM155] (first compound 0.2 µM, partner dose 0.0004 µM) |  | 92 | 86.6 | 133 | 96.2 |  | 98.5 | 101 |  |  |
| CS(=O)(=O)CCNCc1ccc(-c2ccc3ncnc(Nc4ccc(OCc5cccc(F)c5)c(Cl)c4)c3c2)o1 [lapatinib] + O=c1cc(-c2cccc3c2Sc2ccccc2S3)oc(N2CCOCC2)c1 [KU55933] (first compound 0.8 µM, partner dose 1 µM) |  | 99 | 78.9 | 116 | 105 | 87.2 | 89 | 88.3 | 85.9 | 126 |
| C=CCNC1=C2C[C@@H](C)C[C@H](OC)[C@H](O)[C@@H](C)/C=C(\C)[C@H](OC(N)=O)[C@@H](OC)/C=C\C=C(/C)C(=O)NC(=CC1=O)C2=O [Tanespimycin] + O=C(Nc1cccc(Cl)c1)Nc1ncc(CCNc2ncnc3ccsc23)s1 [SNS314] (first compound 0.002 µM, partner dose 0.0008 µM) |  | 93.6 | 82.7 | 106 | 96 | 95.4 | 92.9 | 102 | 99.8 | 75.7 |
